Where a name gives a salt, the structure may show the parent alone. In all, about 1,900 compounds went through this assay and about 40 (2%) showed an effect of 50% or more. This is one part of the list. Residues, ends and D or L forms follow the SMILES beside them. *: point of attachment. Tfa = O=C(C(F)(F)F)*

human SGLT1 (hSGLT1), sequence (P13866 whole entry, looked up): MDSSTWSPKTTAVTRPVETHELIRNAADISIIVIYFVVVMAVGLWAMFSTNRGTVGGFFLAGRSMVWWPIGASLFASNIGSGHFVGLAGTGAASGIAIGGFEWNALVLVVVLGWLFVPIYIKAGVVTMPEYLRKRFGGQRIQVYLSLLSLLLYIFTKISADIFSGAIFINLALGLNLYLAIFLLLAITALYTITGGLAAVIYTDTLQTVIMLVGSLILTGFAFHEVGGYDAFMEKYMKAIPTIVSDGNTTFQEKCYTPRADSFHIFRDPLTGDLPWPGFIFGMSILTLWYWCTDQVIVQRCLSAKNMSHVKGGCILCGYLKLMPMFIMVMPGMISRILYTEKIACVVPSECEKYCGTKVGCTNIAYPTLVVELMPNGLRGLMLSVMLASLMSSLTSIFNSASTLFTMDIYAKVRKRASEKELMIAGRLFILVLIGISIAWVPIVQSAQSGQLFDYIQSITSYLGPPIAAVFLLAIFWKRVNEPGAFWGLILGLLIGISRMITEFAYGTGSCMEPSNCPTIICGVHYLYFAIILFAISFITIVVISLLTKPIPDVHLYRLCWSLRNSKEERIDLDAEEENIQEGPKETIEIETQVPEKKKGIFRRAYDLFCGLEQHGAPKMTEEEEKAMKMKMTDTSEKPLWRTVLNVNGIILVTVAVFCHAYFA

In the experiment the target is human SGLT1 (hSGLT1) (human, UniProt P13866). Nature of the experiment: primary screen, percent of control activity; higher = less effect of the substance. Set-up: single well. The note with it: 50 µM. The gist of the method:
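Single-point screen at 50 µmol/L in CHO-hSGLT1 cells, with 160 µmol/L 1-NBD-glucose in glucose-free DMEM for 90 min at 37°C. Fluorescence from isopropanol extracts was calibrated, and CHO wild-type uptake was subtracted. Data are percent of uptake without compound.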
In the case of `Cc1c(N(C)C)c(=O)n(-c2ccccc2)n1C`, the “NORMALIZED SGLT1 ACTIVITY (%)” value came out at 96%.
With `CC(=O)O[C@H]1C[C@@H](OC(C)=O)C(C)(C)C2C[C@@H](O)[C@]3(C)C(CC[C@@]4(C)[C@H](c5ccoc5)OC(=O)[C@H]5O[C@]543)[C@]21C` (some centres unmarked), the “NORMALIZED SGLT1 ACTIVITY (%)” value was found to be 119%.
As for `COc1ccc(CC(=O)c2ccc(O)cc2O)cc1`, the figure is 256%.
Next, `CC1=C(CC(=O)O)c2cc(F)ccc2/C1=C\c1ccc(S(C)=O)cc1` (centres unmarked): 147%; `Cc1c(NC(=O)c2cccnc2)c(=O)n(-c2ccccc2)n1C`: 130%.
Next, `CC(=O)O[C@@H]1CC2C(C)(C)[C@H](O)CC[C@]2(C)C2CC[C@@]3(C)[C@H](c4ccoc4)OC(=O)C4OC43[C@@]21C` (some centres unmarked): 104%.
For `C=C1C2CC[C@@]3(C)[C@H](c4ccoc4)OC(=O)C[C@]13O[C@H]1CC(O)C(C)(C)C(CC(=O)OC)[C@@]21C` (some centres unmarked), the “NORMALIZED SGLT1 ACTIVITY (%)” value was determined as 104%.
For the compound `CC(C)Nc1nc(Cl)nc(NC(C)C)n1`, the “NORMALIZED SGLT1 ACTIVITY (%)” value was 109%.
As for `CC(=O)O[C@H]1CC[C@]2(C)C3CC[C@@]4(C)C(CC5O[C@@]6(CCC(C)CO6)[C@@H](C)C54)C3CC[C@H]2C1` (some centres unmarked), the figure is 106%; as for `CCCCSP(=O)(SCCCC)SCCCC`, 75%; as for `Clc1ccc(C(c2ccccc2Cl)C(Cl)Cl)cc1` (centres unmarked), 78%.
As for `CCCc1nc2c(C)cc(-c3nc4ccccc4n3C)cc2n1Cc1ccc(-c2ccccc2C(=O)O)cc1`, the figure is 171%.
For `O=C1c2ccccc2C(=O)c2c(O)c(O)cc(O)c21`, the “NORMALIZED SGLT1 ACTIVITY (%)” value was determined as 154%.
In the case of `CN(C)CCOC(=O)C(c1ccccc1)C1(O)CCCC1.Cl` (centres unmarked), the “NORMALIZED SGLT1 ACTIVITY (%)” value is recorded as 87%.
As for `COc1cc([C@@H]2c3cc4c(cc3[C@H](OC(C)=O)[C@H]3COC(=O)[C@@H]23)OCO4)cc(OC)c1OC`, the figure is 105%; as for `CN(C)CCOC(c1ccc(Cl)cc1)c1ccccn1.O=C(O)/C=C\C(=O)O` (centres unmarked), 63%; as for `O=C(O)c1cc2ccccc2[nH]1`, 133%.
As for `N=C1NCCN1CC(=O)O`, the figure is 123%; as for `O=C1C=CC(=O)c2c(O)cccc21`, 98%.
Next, `CO[C@@]1(NC(=O)C(C(=O)[O-])c2ccc(O)cc2)C(=O)N2C(C(=O)[O-])=C(CSc3nnnn3C)CO[C@@H]21.[Na+].[Na+]` (some centres unmarked): 97%.
Take `CON.Cl`: the “NORMALIZED SGLT1 ACTIVITY (%)” value is on record as 87%.
As for `COP(=S)(OC)Oc1ccc([N+](=O)[O-])cc1`, the figure is 85%; as for `COC1C=CC23c4cc5c(cc4CN(C[C@H]2O)[C@@H]3C1)OCO5` (some centres unmarked), 139%; as for `CC(=O)Oc1c2c(c(CC=C(C)C)c3c1C(=O)C1=C[C@@H]4CC5C(C)(C)OC(C/C=C(\C)C(=O)O)(C4=O)[C@@]15O3)OC(C)(CCC=C(C)C)C=C2` (some centres unmarked), 187%.
Next, `COc1ccc(-c2coc3c(OC)c(OC)cc(O)c3c2=O)cc1`: 303%; `NC[C@@H]1O[C@H](O[C@H]2[C@@H](O)[C@H](O[C@@H]3[C@@H](O)[C@H](N)C[C@H](N)[C@H]3O[C@H]3O[C@H](CO)[C@@H](O)[C@H](O)[C@H]3N)O[C@@H]2CO)[C@H](N)[C@@H](O)[C@@H]1O.O=S(=O)(O)O`: 113%; `NC[C@H]1CC[C@H](C(=O)O)CC1`: 87%.
As for `COc1ccc(-c2cc(=O)c3c(O)cc(O)c(-c4cc(-c5cc(=O)c6c(O)cc(O)cc6o5)ccc4OC)c3o2)cc1`, the figure is 168%; as for `COc1ccc2c(c1)OCC(Cc1ccc(OC)c(OC(C)=O)c1)C2=O` (centres unmarked), 247%.
In the case of `COc1ccc([C@H]2Oc3cc(OC)cc(OC)c3C[C@H]2O)cc1`, the “NORMALIZED SGLT1 ACTIVITY (%)” value was determined as 324%.
As for `CC(C)[C@H]1CC[C@H](C(=O)N[C@H](Cc2ccccc2)C(=O)O)CC1`, the figure is 124%; as for `COC(=O)/C(=C1/OC(=O)C(c2ccccc2)=C1O)c1ccccc1`, 128%.
Next, `COc1cc(O)c(C(=O)c2ccccc2)cc1O`: 235%.
Regarding `CC(C)C(NC(=O)C(Cc1ccc(O)cc1)NC(=O)C(NC(=O)C(F)(F)F)C(C)C)C(=O)O` (stereo not drawn) (Tfa-Val-Tyr-Val-OH; configuration not given here), the “NORMALIZED SGLT1 ACTIVITY (%)” value was 97%.
Next, `CC1=C(/C=C/C(C)=C/C=C/C(C)=C\C(=O)O)C(C)(C)CCC1`: 134%.
As for `COc1cc(OC)c2c(=O)c(O)c(-c3ccc(OC)c(OC)c3)oc2c1`, the figure is 99%; as for `CCCOc1ccc2nc(NC(=O)OC)[nH]c2c1`, 115%.
Next, `Cc1cc(NS(=O)(=O)c2ccc(N)cc2)no1`: 103%.
With `CC(=O)O[C@@H]1CC2C(C)(C)C(=O)CC[C@]2(C)C2CC[C@@]3(C)[C@H](c4ccoc4)OC(=O)C4OC43[C@@]21C` (some centres unmarked), the “NORMALIZED SGLT1 ACTIVITY (%)” value was 139%.
Next, `CCCCCCc1ccc(O)cc1O.Nc1c2ccccc2nc2ccccc12`: 383%; `O=C(c1ccc(F)cc1)C1CCN(CCn2c(=O)[nH]c3ccccc3c2=O)CC1`: 131%.
Next, `COc1ccc2c(c1)OCC(Cc1ccc(OC)c(OC)c1)C2=O` (centres unmarked): 204%; `CC1(C)C(=O)[C@@H]2O[C@@H]2[C@@]2(C)C1C[C@@H](O)[C@]1(C)C2CC[C@@]2(C)[C@H](c3ccoc3)OC(=O)C3OC321` (some centres unmarked): 113%; `C[C@H]1O[C@@H](O[C@H]2[C@@H](O)C[C@H](O[C@H]3[C@@H](O)C[C@H](O[C@H]4CC[C@@]5(C)[C@H](CC[C@@H]6[C@@H]5CC[C@]5(C)[C@@H](C7=CC(=O)OC7)CC[C@]65O)C4)O[C@@H]3C)O[C@@H]2C)C[C@H](O)[C@@H]1O`: 111%.

Source of the values: publication PMC6664820, “Novel natural and synthetic inhibitors of solute carriers SGLT1 and SGLT2” (Pharmacology Research & Perspectives, 2019).
